Experimental data taken from patent publication US20250145722A1, “ANTI-GAL3 ANTIBODIES AND METHODS OF USE” (TrueBinding, Inc., priority 2020, published 2025).

B1: F846C.1H5: anti-Gal3 antibody (antibody)
heavy: EVQLLESGGGLVKPGGSLKLSCAASGFTFSSYAMSWVRQTPEKRLEWVASISSGGDTYYPDSVKGRFTISRDNARNILYLQMSSLRSEDTAMYYCASYGNSLFDYWGQGTTLTVSSASTKGPSVFPLAPCSRSTSESTAALGCLVKDYFPEPVTVSWNSGALTSGVHTFPAVLQSSGLYSLSSVVTVPSSSLGTKTYTCNVDHKPSNTKVDKRV[letters of human IgG4 Fc with S228P (EU numbers) omitted]
light: DVVMTQTPLSLPVSLGDQASISCRSSQSLVHNSGNTYLHWYLQRPGQSPNLLIYKVSNRFSGVPDRFSGSGSGTDFTLKISRVAAEDLGVYFCSQSTHVPPTFGGGTKLEIKRTVAAPSVFIFPPSDEQLKSGTASVVCLLNNFYPREAKVQWKVDNALQSGNSQESVTEQDSKDSTYSLSSTLTLSKADYEKHKVYACEVTHQGLSSPVTKSFNRGEC
B2: F847C.4B10: anti-Gal3 antibody (antibody)
heavy: EVQLVETGGGLVKPGGSLKLSCAASGFTFSSYAMSWVRQTPEKRLEWVASISSGGSTYYPDSVKGRFTISRDNARNILYLQMSSLRSEDTAMYYCTRFTTVVEMDYWGQGTSVTVSSASTKGPSVFPLAPCSRSTSESTAALGCLVKDYFPEPVTVSWNSGALTSGVHTFPAVLQSSGLYSLSSVVTVPSSSLGTKTYTCNVDHKPSNTKVDKRV[letters of human IgG4 Fc with S228P (EU numbers) omitted]
light: QAVVTQESALTTSPGETVTLTCRSSTGAVTTSNYANWVQEKPDHLFTGLIGGTNNRAPGVPARFSGSLIGDKAALTITGAQTEDEAIYFCALWYSNHLVFGGGTKLTVLRTVAAPSVFIFPPSDEQLKSGTASVVCLLNNFYPREAKVQWKVDNALQSGNSQESVTEQDSKDSTYSLSSTLTLSKADYEKHKVYACEVTHQGLSSPVTKSFNRGEC
B3: F846TC.14E4: anti-Gal3 antibody (antibody)
heavy: QVTLKESGPGILQPSQTLSLTCSFSGFSLSTSGMGVGWIRQPSGKGLEWLAHIWWDDDKYYNTALKSGLTISKDASKNQVFLKIASMDTADTATYYCARNLYDGSYGYYAMDYWGQGTSVTVSSASTKGPSVFPLAPCSRSTSESTAALGCLVKDYFPEPVTVSWNSGALTSGVHTFPAVLQSSGLYSLSSVVTVPSSSLGTKTYTCNVDHKPSNTKVDKRV[letters of human IgG4 Fc with S228P (EU numbers) omitted]
light: DIVMTQAAFSNPVTLGTSASISCRSSKSLLHTNGITFLYWYLQKPGQSPQPLIYQMSNLASGVPDRFSSSGSGTDFTLRISRVEAEDVGVYYCAQNLELPWTFGGGTKLEINRTVAAPSVFIFPPSDEQLKSGTASVVCLLNNFYPREAKVQWKVDNALQSGNSQESVTEQDSKDSTYSLSSTLTLSKADYEKHKVYACEVTHQGLSSPVTKSFNRGEC
B4: F846TC.7F10: anti-Gal3 antibody (antibody)
heavy: EVQLVESGGDLVKPGGSLKLSCAASGFTFSNYGLSWIRQTPDKRLEWVATISSGGSYTYYPDSVKGRFTISRDSAKNTLYLQMSSLKSEDTAMYYCARHAHYYGVSPYYFDYWGQGTCLTVSSASTKGPSVFPLAPCSRSTSESTAALGCLVKDYFPEPVTVSWNSGALTSGVHTFPAVLQSSGLYSLSSVVTVPSSSLGTKTYTCNVDHKPSNTKVDKRV[letters of human IgG4 Fc with S228P (EU numbers) omitted]
light: DIVMTQSPSSLAMSVGQKVTMSCKSSQSLLNSSNQKNYLAWYQQKPGQSPKLLVYFASTRESGVPDRFIGSGSGTDFTLTISSVQAEDLADYFCQQHYSTPYTFGGGAKLEIKRTVAAPSVFIFPPSDEQLKSGTASVVCLLNNFYPREAKVQWKVDNALQSGNSQESVTEQDSKDSTYSLSSTLTLSKADYEKHKVYACEVTHQGLSSPVTKSFNRGEC
B5: F847C.10B9: anti-Gal3 antibody (antibody)
heavy: QIQLVQSGPEVKKPGETVKISCKASGYIFTNYGMNWVKQAPGKGLKWMGWINTYTGEPTYTDDFKGRFAFSLETSASTAYLQINNLKNEDTATYFCAKFGNYVGAMDYWGQGTSVTVSSASTKGPSVFPLAPCSRSTSESTAALGCLVKDYFPEPVTVSWNSGALTSGVHTFPAVLQSSGLYSLSSVVTVPSSSLGTKTYTCNVDHKPSNTKVDKRV[letters of human IgG4 Fc with S228P (EU numbers) omitted]
light: DIRMTQSPSSLSASLGDTITITCHASQNINVWLSWYQQKPGNIPKLLIYKASNLHTGVPSRFSGSGSGTGFTLTISSLQPEDIATYYCQQGQSYPYTFGGGTKLELKRTVAAPSVFIFPPSDEQLKSGTASVVCLLNNFYPREAKVQWKVDNALQSGNSQESVTEQDSKDSTYSLSSTLTLSKADYEKHKVYACEVTHQGLSSPVTKSFNRGEC
B6: F847C.26F5: anti-Gal3 antibody (antibody)
heavy: QIQLVQSGPEVKKPGETVKISCKASGYIFTNYGMNWVKQAPGKGLKWMGWINTYTGEPTYTDDFKGRFAFSLETSASTAYLQINNLKNEDTATYFCAKFGNYVGAMDYWGQGTSVTVSSASTKGPSVFPLAPCSRSTSESTAALGCLVKDYFPEPVTVSWNSGALTSGVHTFPAVLQSSGLYSLSSVVTVPSSSLGTKTYTCNVDHKPSNTKVDKRV[letters of human IgG4 Fc with S228P (EU numbers) omitted]
light: EIKMNQSPSSLSASLGDTITITCHASQNINVWLSWYQQKPGNIPKLLIYKASNLHTGVPSRFSGSGSGTGFTLTISSLQPEDIATYYCQQGQSYPYTFGGGTKLELKRTVAAPSVFIFPPSDEQLKSGTASVVCLLNNFYPREAKVQWKVDNALQSGNSQESVTEQDSKDSTYSLSSTLTLSKADYEKHKVYACEVTHQGLSSPVTKSFNRGEC
B7: F847C.12F12: anti-Gal3 antibody (antibody)
heavy: QIQLVQSGPELKKPGETVKISCKASGYTFTNYGMNWVKQAPGKGLKWMGWINTYTGEPTYVDDFKGRFAFSLETSASTAYLRINNLKNEDTATYFCAKFGNYVGAMDYWGQGTSVTVSSASTKGPSVFPLAPCSRSTSESTAALGCLVKDYFPEPVTVSWNSGALTSGVHTFPAVLQSSGLYSLSSVVTVPSSSLGTKTYTCNVDHKPSNTKVDKRV[letters of human IgG4 Fc with S228P (EU numbers) omitted]
light: DIQVIQSPSSLSASLGDTITITCHASQNINVWLSWYQQKPGNIPKLLIYKASNLHTGVPSRFSGSGSGTGFTLTISSLQPEDIATYYCQQGQSYPYTFGGGTKLELKRTVAAPSVFIFPPSDEQLKSGTASVVCLLNNFYPREAKVQWKVDNALQSGNSQESVTEQDSKDSTYSLSSTLTLSKADYEKHKVYACEVTHQGLSSPVTKSFNRGEC

These molecules were tested against T1, Human Gal3 peptides (Homo sapiens, UniProt P17931) (assay: Gal3 peptide library binding ELISA). Conditions: antibodies 5 μg/mL.
T1 construct: purchased LifeTein custom order; host or cells: synthetic peptides
Method: To identify the epitopes to which Gal3 antibodies with and without Gal3-APP695 blocking activity bound, a library of 20 amino acid peptides representing portions of Gal3, summarized in FIG. 17 (SEQ ID NOs: 3-26), was produced and the ability to bind Gal3 antibodies was evaluated by ELISA.
Human Gal3 peptides (LifeTein, custom order) and human Gal3 proteins (R&D Systems, 8259-GA; TrueBinding, QCB200349) were diluted in PBS (Corning, 21-030-CM) to concentrations of at least 100 μg/mL (peptides) or 1 μg/mL (proteins), and added to the wells of several 96-well ELISA plates (Thermo Fisher, 44-2404-21). After incubating the plates at 4° C. overnight, the plates were washed three times with PBST (PBS with 0.05% Tween 20 [VWR, 0777]). The plates were then blocked for an hour with 2% BSA (EMD Millipore, 126609) in PBST at room temperature with gentle rocking. Thereafter, the 2% BSA in PBST was discarded and Gal3-binding antibodies (reformatted hIgG4 [S228P]) were diluted in 2% BSA in PBST to concentrations of 5 μg/mL and added to the wells. The plates were incubated for an hour at room temperature with gentle rocking and then washed three times with PBST. Afterwards, Peroxidase AffiniPure F(ab′)2 Fragment Goat Anti-Human IgG (H+L) polyclonal antibody (Jackson ImmunoResearch, 109-036-003), was diluted in 2% BSA in PBST (1:4000) and added to the wells. The plates were incubated for 1 hour at room temperature with gentle rocking and then washed three times with PBST. TMB substrate (Thermo Scientific, 34029) was then added to each well. The reaction was stopped with 1M HCl (JT Baker, 5620-02) and read using a plate reader (Molecular Devices) at absorbance of 450 nm.

Binding to Peptide 1 (SEQ ID NO: 3) of Gal3, bind and bound:
B1
B2
B4
B5
B6
B7

Binding to Peptide 2 (SEQ ID NO: 4) of Gal3, bind:
B3

Binding to Peptide 7 (SEQ ID NO: 9) of Gal3, bind and bound:
B5
B6
B7
